# In the supplement of paper PMC3334620:
# Whole data set: some 33,000 sequences, median “E-score (-0.5 to 0.5)” near -0.04, cut for the highest 2% near 0.36. The list shows a part of the results.
# Biological target: T1, Hmlalpha2 (UniProt P0CY09)
# T1 sequence: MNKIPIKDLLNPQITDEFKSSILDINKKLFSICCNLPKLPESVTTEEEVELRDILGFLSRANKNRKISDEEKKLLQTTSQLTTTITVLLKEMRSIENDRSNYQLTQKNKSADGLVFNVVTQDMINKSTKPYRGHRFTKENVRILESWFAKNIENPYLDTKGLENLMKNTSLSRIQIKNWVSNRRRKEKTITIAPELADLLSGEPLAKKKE
# Test: PBM E-score (8-mer binding enrichment) (E-score (-0.5 to 0.5)); higher = stronger / more preferred TF binding; most listed sequences are background and not binding sites
# Conditions: protein concentration: 200 nM; construct: GST-full length
# Outline: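 Yeast transcription factors, full-length or as DNA-binding domains, were expressed with a GST tag using PURExpress in vitro transcription/translation. At about 100-200 nM they were applied to universal all-10-mer Agilent arrays, double-stranded by primer extension on fresh or once-stripped slides. Fluorescent anti-GST detected bound protein, and masliner normalised the scans. E-scores for ungapped eight-base words, pooled with reverse complements, came from the Universal PBM Analysis Suite.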
row,Sequence,PBM E-score
1,ACTTCTAT,0.024
2,AACTACAT,0.392
3,CACAAACC,0.00801
4,ATGCACGA,0.0499
5,TAACCAAA,0.137
6,TGGGCCCA,-0.232
7,CCGACATA,0.165
8,ACTAGGTA,0.179
9,AAAAGGCT,-0.126
10,TGACTAAA,-0.064
11,CTAAATAC,0.16
12,CTTGATGA,0.041
13,CGTCGAAG,-0.00906
14,ACCTGTCG,0.0455
15,CGAAGATC,-0.0547
16,CGTCCATC,-0.167
17,AGTGGTAA,0.12
18,ATTGAGAA,0.142
19,ACCGTCGA,0.0386
20,GGCGTAAA,0.217
21,AGGGATTA,0.135
22,AGAAATCC,-0.137

row,Sequence,PBM E-score
1,GAACGGGA,-0.148
2,ACCCAAGC,-0.264
3,CGAAGAAG,-0.0393
4,AATCCGTC,-0.036
5,ACTACCAC,-0.0168
6,CCTGAGCA,-0.0367
7,AGGATACA,0.185
8,CCTTGGAA,-0.0658
9,GTGGCGGA,-0.243
10,CTAGTGCC,-0.226
11,GACAAGGA,0.144
12,AAACTCTT,-0.0255
13,CAGCCACG,-0.129
14,ACAAGGCA,0.209
15,ACTACCTG,0.0129
16,AGTCTCAA,-0.155
17,GAGTGGCA,-0.285
18,GTACACAC,0.357
19,TGCCCGAA,-0.0401
20,GAGAAGCC,-0.3
21,ACGCCTTA,0.0621
22,GAAGTCGC,-0.0638

row,Sequence,PBM E-score
1,CCACGGAA,0.0643
2,GTATCCGA,0.0458
3,GAGCTACC,-0.059
4,CCAATAAG,-0.218
5,GCTGTGCC,-0.165
6,GGGTCCTA,-0.235
7,ACTTCCAT,-0.00346
8,CATTGACC,0.0381
9,ATTTTCCA,0.0919
10,CGACAACA,0.295
11,GGTCGCAC,-0.075
12,CTTCATAA,0.037
13,CCACTAGG,-0.347
14,AATACCGC,-0.00644
15,ACCGTATC,-0.15
16,CATATAAG,0.103
17,CGATTACC,-0.0336
18,AGGCTAAG,-0.319
19,TCAGAGAA,0.00131
20,CTTCGCTA,-0.049
21,AGACAAAT,0.0751
22,AGTTCGAA,0.183

row,Sequence,PBM E-score
1,CTTCGGTA,-0.141
2,GCCTCTTA,-0.137
3,CTCTCAAC,0.00577
4,CACTGACC,-0.314
5,GTAACAAA,0.253
6,AACACAGG,0.247
7,AGAGGATG,-0.148
8,GGTATCGA,-0.0151
9,CTAATGCC,-0.151
10,ACCTCACG,-0.103
11,CGTGAACC,-0.107
12,AGCGCACG,-0.0292
13,ACAGTAGG,-0.0374
14,ATTCAGTG,-0.107
15,AGACTATC,-0.0837
16,AGGCGTGC,-0.058
17,TAGGGAGA,-0.283
18,ATTAGTTA,0.249
19,CAGCCGAC,-0.156
20,TCCTTAGA,-0.177
